In the supplement of paper PMC3334620:
Whole data set: some 33,000 sequences, median “E-score (-0.5 to 0.5)” near -0.013, cut for the highest 2% near 0.3. Some of the results follow.

Molecular target: T1, Msn1 (UniProt P22148)
T1 sequence: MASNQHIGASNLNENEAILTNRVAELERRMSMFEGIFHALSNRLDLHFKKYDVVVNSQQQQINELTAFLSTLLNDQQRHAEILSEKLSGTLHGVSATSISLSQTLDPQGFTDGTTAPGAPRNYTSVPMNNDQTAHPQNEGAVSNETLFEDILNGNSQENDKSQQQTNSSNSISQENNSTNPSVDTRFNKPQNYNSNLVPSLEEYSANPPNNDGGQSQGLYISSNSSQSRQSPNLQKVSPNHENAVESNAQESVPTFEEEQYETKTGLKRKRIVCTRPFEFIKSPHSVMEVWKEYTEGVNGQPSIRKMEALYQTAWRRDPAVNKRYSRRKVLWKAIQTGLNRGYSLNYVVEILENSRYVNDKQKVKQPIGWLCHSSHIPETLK
Assay: PBM E-score (8-mer binding enrichment) (E-score (-0.5 to 0.5)); higher = stronger / more preferred TF binding; most listed sequences are background and not binding sites
Settings: protein concentration: 200 nM; construct: GST-full length
Procedure: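 Universal 'all 10-mer' protein binding microarrays (Agilent AMADID 015681) probed with GST-tagged S. cerevisiae TFs (full-length or DBD) made by in vitro transcription/translation (PURExpress), about 100-200 nM. Bound TF was detected with fluorescent anti-GST. Each ungapped 8-mer (which stands for itself and its reverse complement) is scored by the PBM enrichment score (E-score), a modified Wilcoxon-Mann-Whitney statistic from -0.5 to +0.5, computed with the Universal PBM Analysis Suite. Scale: above 0.35 generally sequence-specific binding.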

Row | Sequence | PBM E-score
1 | AGAAGCTA | -0.135
2 | CAAGGCGG | -0.0842
3 | ACGTTGAC | -0.0368
4 | AATGGCAC | -0.0842
5 | GCAGGTAA | 0.068
6 | GTCCCCAA | 0.187
7 | ATACCCAA | 0.195
8 | ATCTGCTA | -0.0771
9 | GTGGTAGA | -0.219
10 | AATGCGCG | 0.213
11 | ACACGCCT | 0.162
12 | CTCGCGCA | -0.0472
13 | CCGCCGGC | -0.087
14 | CCGTCAGA | -0.175
15 | ACACAAAA | 0.296
16 | CTTTCCCC | -0.0808
17 | ACTGAAAC | 0.0672
18 | ATGTTGTA | 0.0647
19 | AGCTGCTG | -0.049
20 | ACTGTGTG | -0.0962
21 | ATTTTTAC | -0.0167
22 | AACCTAGT | 0.0134
23 | ACAGTAGT | -0.0432
24 | CGTCTATA | -0.0769

Row | Sequence | PBM E-score
25 | CACGACCC | -0.304
26 | GCGTAGAA | 0.00649
27 | GACCTAAC | 0.127
28 | AAGTGTGT | 0.103
29 | GGAAAGGA | 0.0229
30 | AACGCCGG | -0.0155
31 | CTAAACGA | -0.0143
32 | CTTCTCGA | 0.00137
33 | ATCTGGTG | -0.0161
34 | CATATAGA | 0.178
35 | ACGCGATC | -0.00507
36 | ATGCCCAA | 0.0214
37 | GGCTTCAC | -0.22
38 | GCCGATGA | -0.055
39 | GAGACACC | 0.0217
40 | CGAGGACA | 0.453
41 | AGTCTGAT | -0.0321
42 | CAACCTAA | 0.0393
43 | GAAAGGCA | -0.095
44 | GGAGTGGA | -0.114
45 | TACGTCCA | 0.179
46 | ACGGCGAA | 0.173
47 | CATGAAAC | 0.0367
48 | ATCTGTAC | 0.269

Row | Sequence | PBM E-score
49 | CCCTGGTA | -0.256
50 | GTCGACGA | -0.0442
51 | TGGACGAA | 0.226
52 | CGTTGAGC | -0.152
53 | ACGCCCGT | -0.0262
54 | ATACCATA | 0.0438
55 | AAATAACT | 0.295
56 | CGACACCG | -0.0238
57 | AGCTATGG | -0.0771
58 | CATTAAGG | -0.0214
59 | CTGGTGCC | -0.0638
60 | GCTCGACC | -0.17
61 | CGGACTTC | 0.0733
62 | TAAAATAA | 0.0622
63 | ACAGTAAT | 0.119
64 | CACCTGAA | 0.0818
65 | CTGCTTTA | 0.103
66 | GGACAGTA | 0.102
67 | CTACCGGA | -0.0645
68 | TCGGTTCA | -0.047
69 | CACCTATC | -0.044
70 | AATCTGGC | -0.235
71 | GATGCTCA | -0.249
72 | ATTCTGCG | 0.178

Row | Sequence | PBM E-score
73 | AAGTCGCG | 0.202
74 | AACGAGCG | 0.0745
75 | CAGAAATG | 0.164
76 | GGGTGAGA | -0.244
77 | CGGTTCAG | -0.251
78 | GCGCAGAC | 0.171
79 | CTCCCGAC | -0.0805
80 | AAGGCTTC | -0.0824
81 | ACGCGATG | -0.0223
82 | CCTTTCAA | -0.0699
83 | CCAGAAGA | -0.167
84 | CACCACAG | 0.0197
85 | CCCTGACC | -0.238
86 | ACCAAACA | 0.0314
87 | CGACTCTA | -0.196
88 | GAGAGATA | 0.121
89 | CCTACAAG | -0.111
90 | ATGATAGA | 0.165
91 | ACAGCCCC | -0.142
92 | CCCTCAAG | -0.197
93 | AGGATCAC | -0.0517
94 | CTCGGTGA | 0.00589
